In PubChem BioAssay AID1466 (National Center for Advancing Translational Sciences (NCATS), 2008):
The campaign covered roughly 200,000 compounds. About 10 (0.005%) were called active. This list was built around the results that the source calls inconclusive (neither active nor inactive); the mix of calls is not that of the screen. The call rests on the fitted dose curve; in most records, active means well fitted inhibition curve with a large enough effect; inconclusive means small, poorly fitted or top-dose-only effect, or effect the other way, or another doubt; inactive means no such curve, though single readings can be large or run the other way. Where the call is inconclusive, the potency comes from a doubtful curve fit.

Biological target: Lysosomal alpha-glucosidase (Homo sapiens) (UniProt P10253)
Experiment: qHTS Assay for Inhibitors of Human alpha-Glucosidase as a Potential Chaperone Treatment of Pompe Disease;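 on activity change, negative = inhibition: plate controls were uninhibited enzyme wells for no effect and no-enzyme background for full effect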
Settings: purified human GAA, 4-MU-alpha-glucoside fluorescence; activity change, negative = inhibition: at 76.9 µM (top of the series) unless noted
How it was run: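 Enzyme (4 nM final) mixed with compound (up to 77 uM), then 4-MU-alpha-D-pyranoside (400 uM final) added; 20 min at room temperature, pH 5.0. Reaction stopped at pH 10, fluorescence read, AC50 derived by Hill fit.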
Potency means the concentration at half of the fitted maximal effect; tags describe the fitted curve by direction and shape.

Potency, inactive:
COc1ccc2c(c1)c(C(=O)N/N=C/c1ccc(O)c(O)c1)c(C)n2C, Cc1ccc(S(=O)(=O)N2CCCN(S(=O)(=O)c3ccc4ccccc4c3)CC2)cc1, O=C(Nc1cccc(-c2nc3ccccc3s2)c1)c1ccc2c(c1)OCO2, CCOC(=O)c1oc2c(O)c(O)ccc2c(=O)c1-c1nncn1-c1ccccc1, CCc1ccc(OCc2nc(-c3ccccn3)no2)c(Br)c1

Potency, inconclusive:
CN(C)S(=O)(=O)c1cccc(C(=O)Nc2ccccc2[N+](=O)[O-])c1 28.2 µM [inhibitor, single point], COc1ccc(-c2nnc(SCc3cccc(C)c3)n2N)cc1 0.891 µM [inhibitor, full curve], CCCCOC(=O)CCn1[nH]c(=O)c2ccccc2c1=O 39.8 µM [inhibitor, single point], COC(=O)c1sc(N)c(C(=O)OC)c1COC(=O)C1CC(=O)N(Cc2ccco2)C1 (centres undefined) 8.91 µM [inhibitor, partial curve], CCSc1nc(-c2ccc(OC)cc2)cc(-c2ccc(OC)cc2)c1C#N 50.1 µM [activator, single point], CC(=O)N(C(C)=O)c1cccc2c(N(C(C)=O)C(C)=O)cccc12 28.2 µM [inhibitor, single point], CC1(C)CC2CC(C)(CN2S(=O)(=O)c2ccc(C(=O)Nc3ccc(Cl)c(S(=O)(=O)N4CCOCC4)c3)cc2)C1 (centres undefined) 12.6 µM [inhibitor, partial curve, poor fit], CCN1C(=O)c2ccc(C(=O)NCc3ccccc3)cc2C1=O 50.1 µM [inhibitor, single point], Cc1ccc2c(C)nc(NC3=NCN(CCc4ccccc4)CN3)nc2c1 15.8 µM [inhibitor, partial curve, poor fit], Cc1c(C(=O)OCCOc2ccccc2)[nH]c2c1C(=O)CCC2 56.2 µM [inhibitor, single point], C=C(C)c1cccc(C(C)(C)NC(=O)NCc2ccc(OC)c(OC)c2)c1 2.51 µM [inhibitor, partial curve], Cc1ccc(C(=O)N/C(=C\c2ccc(-c3ccc([N+](=O)[O-])cc3)o2)C(=O)NC2CCS(=O)(=O)C2)cc1 (centres undefined) 2 µM [inhibitor, full curve], CCOc1ccc(N2C(=O)c3cccnc3C2Nc2ccc(C)c(C)c2)cc1 (centres undefined) 44.7 µM [inhibitor, partial curve], O=C(Nc1cccc(S(=O)(=O)N2CCCC2)c1)c1ccc2c(=O)n3c(nc2c1)CCCCC3 0.891 µM [inhibitor, full curve, poor fit], CCOC(=O)c1c(C)oc2c1c(C=NCCO)c(O)c1ccccc12 50.1 µM [inhibitor, single point], Cc1ccc(-n2c(SCC(=O)N3CC(=O)Nc4ccccc43)nc3ccccc3c2=O)cc1 0.891 µM [inhibitor, full curve, poor fit], Cc1csc(=N)n1CC(=O)N1CCc2ccccc21 15.8 µM [inhibitor, partial curve, poor fit], CCN(CC)c1ccc2c(C)c(CO)c(=O)oc2c1 31.6 µM [activator, partial curve], C=CCOc1ccc2oc(=O)cc(C)c2c1 39.8 µM [activator, single point], NC(=O)C1CCN(C(=O)CSc2nc3ccccc3o2)CC1 44.7 µM [inhibitor, single point], CC(C)Oc1ccc(CCc2n[nH]c(=S)n2Cc2ccccc2)cc1 39.8 µM [inhibitor, single point], CS(=O)(=O)N1N=C(c2ccc(Cl)cc2)CC1c1cccs1 (centres undefined) 56.2 µM [inhibitor, single point], c1csc(-c2nc3c4ccccc4c4ccccc4c3[nH]2)c1 39.8 µM [activator, partial curve], N=c1c(C(=O)NCC2CCCO2)cc2c(=O)n3ccccc3nc2n1Cc1cccnc1 (centres undefined) 25.1 µM [activator, partial curve], CCCCOc1ccc2ccccc2c1C=O 50.1 µM [inhibitor, single point], Cn1nnnc1SCC(=O)c1ccc2c(c1)OCCO2 11.2 µM [inhibitor, single point], CCCC1=C(C(=O)OCC)C(c2ccc(OC)c(C)c2OC)C(C#N)=C(N)O1 (centres undefined) 50.1 µM [inhibitor, single point], CC1CCCCN1CCNC(=O)c1ccc2c(=O)n(CCc3ccccc3)c(=O)[nH]c2c1 (centres undefined) 50.1 µM [activator, single point], COc1ccccc1-c1noc(CCC(=O)Nc2ccccc2Cl)n1 1.41 µM [inhibitor, full curve, poor fit], Cc1c(C(=O)O)oc2ccc(S(=O)(=O)NCc3ccccc3)cc12 20 µM [inhibitor, partial curve], COc1ccc(-c2[nH]ncc2CN(C)Cc2cnccn2)c(OC)c1 0.316 µM [activator, full curve], COc1cc(OC)c(OC)cc1CNCCNC(=O)c1nonc1N 31.6 µM [inhibitor, partial curve, poor fit], N#CCCN(Cc1cccnc1)C(=S)NC(=O)c1ccc(S(=O)(=O)N2CCCC2)cc1 17.8 µM [inhibitor, partial curve], CN1C(=S)SC(/[N+]([O-])=C\c2ccccc2)C1(C)C (centres undefined) 1.26 µM [inhibitor, partial curve, poor fit], Cn1c(N)c(C(=O)COC(=O)CNS(=O)(=O)c2ccc(Cl)c(Cl)c2)c(=O)n(C)c1=O 56.2 µM [inhibitor, single point], Cc1ccc(NC(=O)c2cnccn2)c(OC(F)F)c1 56.2 µM [inhibitor, single point], CCCNC(=O)C1CN(S(=O)(=O)c2ccccc2)CCN1S(=O)(=O)c1ccccc1 (centres undefined) 56.2 µM [inhibitor, single point], Nc1ccc(-c2nc3cc(N)ccc3s2)cc1 2.82 µM [activator, partial curve], COC(=O)/C=C1/SC(=NC(=O)c2ccc(F)cc2)NC1=O 3.16 µM [inhibitor, full curve], COC(=O)C1=CN(C(C)C)C=C(C(=O)OC)C1c1cccc(OC)c1 28.2 µM [activator, partial curve], CSc1ccc(S(=O)(=O)NCCOc2ccccc2C)cc1 35.5 µM [inhibitor, single point], CCc1cccc(CC)c1NC(=O)CO/N=C(\C)c1cccs1 6.31 µM [inhibitor, single point], CN1C(=O)/C(=C/c2cccc(Cl)c2)Sc2ccc(C(=O)NCc3cccnc3)cc21 39.8 µM [inhibitor, single point], CCc1nn2c(N3CCOCC3)cc(C)nc2c1-c1ccc(F)cc1 50.1 µM [activator, single point]

Activity change, negative = inhibition, inactive:
Cc1c(NC(=S)N/N=C/c2cc([N+](=O)[O-])ccc2O)c(=O)n(-c2ccccc2)n1C 4.33% [at 15.4 µM]

Activity change, negative = inhibition, inconclusive:
CCOc1ccc(C(=O)NCC(=O)OCc2cc([N+](=O)[O-])cc3c2OCOC3)cc1OCC -17.5% [inhibitor], Cc1ccc(NC(=O)c2ccc(F)cc2)nc1 7.19% [activator], O=c1c2ccccc2sn1-c1ccc(S(=O)(=O)N2CCCC2)cc1 -15.1% [inhibitor], Cc1ccc(NC(=S)NNC(=O)c2c([N+](=O)[O-])c(C)nn2C)cc1 -17% [inhibitor], CCOC(=O)N1CCC(N(CCN(C)C)C(=S)Nc2cc(Cl)cc(Cl)c2)CC1 -15.1% [inhibitor], Cc1occc1C(=O)Nc1nnc(-c2cccs2)s1 24.9% [activator], COc1ccc(OCC(=O)Nc2ccc(N3CCCCC3)cc2)cc1 14.7% [activator], CCCc1cc(C(=O)N2CCN(C(c3ccccc3)c3ccccc3)CC2)no1 -16.4% [inhibitor], C=C(C)C1CC=C(C)/C(=N\NC(=O)CNc2cccc3ccccc23)C1 (centres undefined) 15.4% [activator], COc1ccc(S(=O)(=O)N2CCOCC2)cc1NC(=O)c1ccccc1-c1ccc(C(F)(F)F)cc1 16.8% [activator], CCC(=O)c1ccc(N2CCN(C(=O)Cc3ccccc3)CC2)c(F)c1 -23.8% [inhibitor], NC(N)=NCC(O)CN(c1ccccc1)c1ccccc1 (centres undefined) -15.4% [inhibitor], CC1CN(CC(O)COc2ccc(C(C)C)cc2)CC(C)O1 (centres undefined) -15.1% [inhibitor], COc1cc(S(=O)(=O)N2CCOCC2)ccc1NC(=O)CSc1nnc(N)s1 -16.2% [inhibitor]
